{"source": "PubChem BioAssay (NCI)", "note": "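Briefly, cells in 96-well plates were exposed to five compound concentrations for 48 h, and endpoints were estimated by linear interpolation. Abbreviation: GI50, concentration required for 50% inhibition of growth. At the TGI there is no net growth.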"}
{"test_system": "NCI-H322M lung", "test": "inhibition of tumour cell growth, NCI panel, 48 h", "units": {"GI50": "µM", "TGI": "µM"}}
{"molecule": "CC(=O)OC12C=C(C)C(C(C)C1)C1C(=O)N(CCN3CCCCC3)C(=O)C12", "note": "(stereo not given)", "GI50": "> 50", "TGI": "> 50"}
{"molecule": "c1ccc(OCCC[P+](c2ccccc2)(c2ccccc2)c2ccccc2)cc1", "GI50": 4.29, "TGI": 25.3}
{"molecule": "C1CN(c2nnc(N3CCC3)nn2)C1", "TGI": "> 100"}
{"molecule": "Cc1c([C@H](C)[C@@H]2NC[C@@H](C)C[C@H]2O)ccc2c1C[C@H]1[C@H]2CC=C2C[C@@H](O)CC[C@@]21C", "TGI": 37.5}
{"molecule": "CN1Cc2ccccc2/C=C\\c2ccccc21", "TGI": "> 100"}
{"molecule": "O=C(O)/C(Cc1cn[nH]n1)=N\\O", "TGI": "> 100"}
{"molecule": "Cc1ccccc1NC(=O)CC(=O)NNC(Sc1ccccc1)c1cc(N=Nc2ccc(Br)cc2)ccc1O", "note": "(stereo not given)", "TGI": "> 10"}
{"molecule": "CCCCCCCCCCCCC(O)c1ccco1", "note": "(stereo not given)", "GI50": 22.8, "TGI": 40.8}
{"molecule": "C#Cc1cccc(Nc2nc(Cl)nc3cc(NC(=O)CCl)ccc23)c1", "GI50": 3.44, "TGI": 6.69}
{"molecule": "C[C@H](C1CC2(C)OC2(C)C(=O)O1)[C@H]1CC[C@H]2[C@@H]3[C@@H]4O[C@@H]4[C@@]4(O)CC=CC(=O)[C@]4(C)[C@H]3CC[C@]12C", "note": "(stereo not given in full)", "TGI": "> 50"}
{"molecule": "CC(C)(C)C1=C(Br)C(O)(C(C)(C)C)OP1(=O)c1ccccc1", "note": "(stereo not given)", "TGI": "> 100"}
{"molecule": "Cc1cccc(C(=O)O)c1C(=O)c1cccc2ccccc12", "TGI": "> 100"}
{"molecule": "O=C(NC(=O)c1c(Cl)nc2sccn12)Nc1ccc(Cl)cc1", "TGI": "> 100"}
{"molecule": "CC(=O)OC[C@H]1On2nnnc2[C@H](OC(C)=O)[C@@H](OC(C)=O)[C@@H]1OC(C)=O", "TGI": "> 100"}
{"molecule": "O=C(NNc1ccc(Cl)cc1)C1CCC(CNS(=O)(=O)c2ccccc2Cl)CC1", "note": "(stereo not given)", "GI50": 11.1, "TGI": 51.6}
{"molecule": "O=C(O)/C=C\\C(=O)Nn1c(Cc2ccc(Cl)cc2)n[nH]c1=O", "TGI": "> 100"}
{"molecule": "O=c1[nH]nc(Cc2ccc(Cl)cc2)n1/N=C/c1ccc([N+](=O)[O-])o1", "TGI": 15.1}
{"molecule": "CSc1cnc2ccccc2c1Sc1c[nH]c2ccccc2c1=O", "TGI": 43.3}
{"molecule": "COC(=O)Cn1cnc2c(Cl)nc(Nc3ccccc3)nc21", "TGI": 71.9}
{"molecule": "COc1cc(C2C3=C(COC3=O)N(CCO)c3cc4c(cc32)OCCO4)cc(OC)c1OC", "note": "(stereo not given)", "GI50": 1.8, "TGI": "> 50"}
{"molecule": "COc1ccccc1S(=O)(=O)Nc1ccc2c3c(cc(CCC(=O)NCCCCNc4cccc5c4C(=O)N(C4CCC(=O)NC4=O)C5=O)cc13)C(=O)N2C", "note": "(stereo not given)", "GI50": 0.415, "TGI": "> 100"}
{"molecule": "COc1cc(N(CCC#N)CCC#N)ccc1/C=N\\NC(=O)c1ccc(C)cc1", "TGI": "> 100"}
{"molecule": "CC(C)OC(=S)Nc1ccc(Cl)c(/C=N/OC(C)(C)C)c1", "TGI": 45.5}
{"molecule": "CCCCCC(O)C(O)CCC[C@H](O)[C@H]1CC[C@H]([C@H]2CC[C@H]([C@H](O)CCCCCCCCCCCCC3=C[C@H](C)OC3=O)O2)O1", "note": "(stereo not given in full)", "GI50": 13.1, "TGI": 30}
{"molecule": "Cc1c2cccc-2ccc2c3ccccc3n(C(=O)c3ccc(Cl)cc3)c12", "TGI": "> 100"}
{"molecule": "Cc1cc(N(CCOS(C)(=O)=O)CCOS(C)(=O)=O)ccc1C(=O)O", "GI50": "> 100", "TGI": "> 100"}
{"molecule": "COc1ccc2nc(C(=O)c3ccccc3)c(C)cc2c1", "TGI": "> 100"}
{"molecule": "CCOC(=O)Nc1ccc(S(=O)(=O)Nn2cnnc2)cc1", "TGI": "> 100"}
{"molecule": "CC1(C)O[C@@H](C[C@]2(C#N)C[C@H](CCl)OC(C)(C)O2)C[C@@H](C#N)O1", "TGI": "> 100"}
{"molecule": "Cc1ccc([N+](=O)[O-])c2c(NCCNC(=O)c3cc(C(=O)NCCNc4ccnc5c(C)ccc([N+](=O)[O-])c45)n(C)n3)ccnc12", "TGI": "> 100"}
{"molecule": "O=C(O)c1cccc(NC(C(=O)c2ccccc2)c2ccccc2)c1", "note": "(stereo not given)", "TGI": "> 100"}
{"molecule": "CC1(C)C=C(/C=N/Nc2ccccc2)C(C#N)=C(O)C1(C#N)C#N", "TGI": "> 100"}
{"molecule": "Cc1cc(-c2nc3cccc(O)c3s2)ccc1N", "TGI": "> 100"}
{"molecule": "C=C1C(O)C2CC(C)(CO)C(=O)C2=C(CC(C)C)C12CC2", "note": "(stereo not given)", "GI50": 69.4, "TGI": "> 100"}
{"molecule": "S=C1Cc2c(-c3ccc(Br)cc3)cc(-c3ccccc3)nc2-c2ccccc2N1", "TGI": 4.06}
{"molecule": "Cc1ccc(NC(=O)C(=O)CC(=O)c2c(C)n([O-])c3ccccc3[n+]2=O)cc1C", "TGI": "> 100"}
{"molecule": "CCN(CC)CCCC(C)Nc1cc(-c2cccc(OC(F)(F)F)c2)nc2ccc(N3CCCC3)cc12", "note": "(stereo not given)", "GI50": 0.452, "TGI": "> 100"}
{"molecule": "CN(C)CC1CC/C(=C\\c2ccc3c(c2)OCO3)C1=O", "note": "(stereo not given)", "TGI": 50}
{"molecule": "O=C1/C(=C/c2ccc(F)cc2)CN(C(=O)CCN2CCC(=NO)CC2)C/C1=C\\c1ccc(F)cc1", "GI50": 2.92, "TGI": 5.7}
{"molecule": "CCCCCCSSC(=S)N(CC)CC", "GI50": 29.8, "TGI": "> 100"}
{"molecule": "CC(=O)C(C)(C)CCC(C)(C)C(C)=O", "TGI": "> 100"}
{"molecule": "O=c1c2nc(-c3ccccc3)oc2n(-c2ccccc2)c(=O)n1-c1ccccc1", "TGI": "> 46.4"}
{"molecule": "COC(=O)Nc1nc2ccc(NC(=O)c3ccc(I)cc3)cc2[nH]1", "TGI": "> 100"}
{"molecule": "CC1CCC2(OC1)OC1C(O)C3C4CCC5CC(OC6OC(CO)C(OC7OC(CO)C(O)C(OC8OCC(O)C(O)C8O)C7OC7OC(CO)C(O)C(OC8OC(CO)C(O)C(O)C8O)C7O)C(O)C6O)C(O)CC5(C)C4CCC3(C)C1C2C", "note": "(stereo not given)", "TGI": 10.4}
{"molecule": "COCCOc1cc(C)cc(/C=C(C)/C=C/C2=C(C)CCCC2(C)C)n1", "TGI": "> 100"}
{"molecule": "CS(=O)(=O)OCCCNCCCOS(C)(=O)=O", "TGI": 7060}
{"molecule": "CCCCN(C)/N=N/c1nc[nH]c1C(N)=O", "TGI": "> 100"}
{"molecule": "OC(NN=C1CCCC1)(C(F)(F)Cl)C(F)(F)Cl", "TGI": "> 10"}
{"molecule": "CC(C)c1cc(C(C)C)c(S(=O)(=O)N=[N+]=[N-])c(C(C)C)c1", "TGI": "> 100"}
{"molecule": "CS(=O)(=O)Nc1cccc(-c2ccc3ncnc(Nc4ccc(F)c(Cl)c4)c3c2)c1", "GI50": 0.0486, "TGI": 4.79}
{"molecule": "COC(NC(=O)Nc1ccccc1C)(C(F)(F)F)C(F)(F)F", "TGI": "> 100"}
